# Test results from the supplement of paper PMC8728848.
# The other results are listed elsewhere or left out.
# Legend:
# Experiment in all cases: glycan array binding signal (z-score within array); higher = stronger binding
# Conditions in all cases: glycan notation: IUPAC condensed, linker removed
# [1] = target: Fuc(a1-2)[Gal(a1-3)]Gal(b1-3)GlcNAc(b1-6)GalNAc
# Procedure, shortened: (§1)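 The binding signal is a Z-score computed within each array and averaged over linkers. Arrays of the same protein sequence at different concentrations or buffers were also averaged together. Data originate from 3228 arrays in the Consortium for Functional Glycomics database, kept only where the protein sequence was available.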
# [2] = target: Fuc(a1-2)[Gal(a1-3)]Gal(b1-4)Glc
# Procedure, shortened: as §1
# [3] = target: Fuc(a1-2)[Gal(a1-3)]Gal(b1-4)GlcNAc
# Procedure, shortened: as §1
# [4] = target: Fuc(a1-2)[Gal(a1-3)]Gal(b1-4)GlcNAc(b1-2)Man
# Procedure, shortened: as §1
# [5] = target: Fuc(a1-2)[Gal(a1-3)]Gal(b1-4)GlcNAc(b1-2)Man(a1-3)[Fuc(a1-2)[Gal(a1-3)]Gal(b1-4)GlcNAc(b1-2)Man(a1-6)]Man(b1-4)GlcNAc(b1-4)GlcNAc
# Procedure, shortened: as §1
# [6] = target: Fuc(a1-2)[Gal(a1-3)]Gal(b1-4)GlcNAc(b1-2)Man(a1-3)[Fuc(a1-2)[Gal(a1-3)]Gal(b1-4)GlcNAc(b1-2)Man(a1-6)]Man(b1-4)GlcNAc(b1-4)[Fuc(a1-6)]GlcNAc
# Procedure, shortened: as §1
# [7] = target: Fuc(a1-2)[Gal(a1-3)]Gal(b1-4)GlcNAc(b1-3)GalNAc
# Procedure, shortened: as §1
# [8] = target: Fuc(a1-2)[Gal(a1-3)]Gal(b1-4)GlcNAc(b1-3)[Fuc(a1-2)[Gal(a1-3)]Gal(b1-4)GlcNAc(b1-6)]GalNAc
# Procedure, shortened: as §1
# [9] = target: Fuc(a1-2)[Gal(a1-3)]Gal(b1-4)GlcNAc(b1-6)GalNAc
# Procedure, shortened: as §1
# [10] = target: Fuc(a1-2)[Gal(a1-3)]Gal(b1-4)[Fuc(a1-3)]Glc
# Procedure, shortened: as §1
# [11] = target: Fuc(a1-2)[Gal(a1-3)]Gal(b1-4)[Fuc(a1-3)]GlcNAc
# Procedure, shortened: as §1
# [12] = target: Fuc(a1-2)[Gal(a1-3)]Gal(b1-4)[Fuc(a1-3)]GlcNAc(b1-3)GalNAc
# Procedure, shortened: as §1
# [13] = target: Fuc(a1-2)[Gal(a1-4)]Gal(b1-4)GlcNAc
# Procedure, shortened: as §1
# [14] = target: Fuc(a1-2)[GalNAc(a1-3)]Gal
# Procedure, shortened: as §1
# [15] = target: Fuc(a1-2)[GalNAc(a1-3)]Gal(b1-3)GalNAc(a1-3)[Fuc(a1-2)]Gal(b1-4)GlcNAc
# Procedure, shortened: as §1
# [16] = target: Fuc(a1-2)[GalNAc(a1-3)]Gal(b1-3)GalNAc(b1-3)Gal(a1-4)Gal(b1-4)Glc
# Procedure, shortened: as §1
# [17] = target: Fuc(a1-2)[GalNAc(a1-3)]Gal(b1-3)GlcNAc
# Procedure, shortened: as §1
# [18] = target: Fuc(a1-2)[GalNAc(a1-3)]Gal(b1-3)GlcNAc(b1-2)Man(a1-3)[Fuc(a1-2)[GalNAc(a1-3)]Gal(b1-3)GlcNAc(b1-2)Man(a1-6)]Man(b1-4)GlcNAc(b1-4)GlcNAc
# Procedure, shortened: as §1
# [19] = target: Fuc(a1-2)[GalNAc(a1-3)]Gal(b1-3)GlcNAc(b1-2)Man(a1-3)[Fuc(a1-2)[GalNAc(a1-3)]Gal(b1-3)GlcNAc(b1-2)Man(a1-6)]Man(b1-4)GlcNAc(b1-4)[Fuc(a1-6)]GlcNAc
# Procedure, shortened: as §1
# [20] = target: Fuc(a1-2)[GalNAc(a1-3)]Gal(b1-3)GlcNAc(b1-3)GalNAc
# Procedure, shortened: as §1
# [21] = target: Fuc(a1-2)[GalNAc(a1-3)]Gal(b1-3)GlcNAc(b1-6)GalNAc
# Procedure, shortened: as §1
# [22] = target: Fuc(a1-2)[GalNAc(a1-3)]Gal(b1-4)Glc
# Procedure, shortened: as §1
# [23] = target: Fuc(a1-2)[GalNAc(a1-3)]Gal(b1-4)GlcNAc
# Procedure, shortened: as §1
# [24] = target: Fuc(a1-2)[GalNAc(a1-3)]Gal(b1-4)GlcNAc(b1-2)Man
# Procedure, shortened: as §1
# [25] = target: Fuc(a1-2)[GalNAc(a1-3)]Gal(b1-4)GlcNAc(b1-2)Man(a1-3)[Fuc(a1-2)[GalNAc(a1-3)]Gal(b1-4)GlcNAc(b1-2)Man(a1-6)]Man(b1-4)GlcNAc(b1-4)GlcNAc
# Procedure, shortened: as §1
# [26] = target: Fuc(a1-2)[GalNAc(a1-3)]Gal(b1-4)GlcNAc(b1-2)Man(a1-3)[Fuc(a1-2)[GalNAc(a1-3)]Gal(b1-4)GlcNAc(b1-2)Man(a1-6)]Man(b1-4)GlcNAc(b1-4)[Fuc(a1-6)]GlcNAc
# Procedure, shortened: as §1
# [27] = target: Fuc(a1-2)[GalNAc(a1-3)]Gal(b1-4)GlcNAc(b1-2)Man(a1-3)[GalNAc(a1-3)[Fuc(a1-2)]Gal(b1-4)GlcNAc(b1-2)Man(a1-6)]Man(b1-4)GlcNAc(b1-4)GlcNAc
# Procedure, shortened: as §1
# [28] = target: Fuc(a1-2)[GalNAc(a1-3)]Gal(b1-4)GlcNAc(b1-3)Gal(b1-4)GlcNAc
# Procedure, shortened: as §1
# [29] = target: Fuc(a1-2)[GalNAc(a1-3)]Gal(b1-4)GlcNAc(b1-3)Gal(b1-4)GlcNAc(b1-3)Gal(b1-4)GlcNAc
# Procedure, shortened: as §1
# [30] = target: Fuc(a1-2)[GalNAc(a1-3)]Gal(b1-4)GlcNAc(b1-3)GalNAc
# Procedure, shortened: as §1
# [31] = target: Fuc(a1-2)[GalNAc(a1-3)]Gal(b1-4)GlcNAc(b1-3)[Fuc(a1-2)[GalNAc(a1-3)]Gal(b1-4)GlcNAc(b1-6)]GalNAc
# Procedure, shortened: as §1
# [32] = target: Fuc(a1-2)[GalNAc(a1-3)]Gal(b1-4)GlcNAc(b1-6)GalNAc
# Procedure, shortened: as §1
# [33] = target: Fuc(a1-2)[GalNAc(a1-3)]Gal(b1-4)[Fuc(a1-3)]GlcNAc
# Procedure, shortened: as §1
# [34] = target: Fuc(a1-2)[GalNAc(a1-3)]Gal(b1-4)[Fuc(a1-3)]GlcNAc(b1-3)GalNAc
# Procedure, shortened: as §1
# [35] = target: Fuc(a1-2)[GalNAc(a1-4)]Gal(b1-4)GlcNAc
# Procedure, shortened: as §1
# [36] = target: Fuc(a1-2)[GalNAc(b1-3)]Gal
# Procedure, shortened: as §1
# Fuc(a1-3)GlcNAc = target: Fuc(a1-3)GlcNAc
# Procedure, shortened: as §1
binder,measurement,setting,value
"LSECtin (Homo sapiens), Q6UXB4 (protein) MDTTRYSKWGGSSEEVPGGPWGRWVHWSRRPLFLALAVLVTTVLWAVILSILLSKASTERAALLDGHDLLRTNASKQTAALGALKEEVGDCHSCCSGTQAQLQTTRAELGEAQAKLMEQESALRELRERVTQGLAEAGRGREDVRTELFRALEAVRLQNNSCEPCPTSWLSFEGSCYFFSVPKTTWAAAQDHCADASAHLVIVGGLDEQGFLTRNTRGRGYWLGLRAVRHLGKVQGYQWVDGVSLSFSHWNQGEPNDAWGRENCVMMLHTGLWNDAPCDSEKDGWICEKRHNC",glycan array binding signal (z-score),[1],-0.131
same,glycan array binding signal (z-score),[2],-0.014
same,glycan array binding signal (z-score),[3],0.029
same,glycan array binding signal (z-score),[4],-0.13
same,glycan array binding signal (z-score),[5],-0.032
same,glycan array binding signal (z-score),[6],-0.116
same,glycan array binding signal (z-score),[7],-0.131
same,glycan array binding signal (z-score),[8],-0.138
same,glycan array binding signal (z-score),[9],-0.124
same,glycan array binding signal (z-score),[10],-0.135
same,glycan array binding signal (z-score),[11],-0.134
same,glycan array binding signal (z-score),[12],-0.132
same,glycan array binding signal (z-score),[13],-0.125
same,glycan array binding signal (z-score),[14],-0.141
same,glycan array binding signal (z-score),[15],-0.119
same,glycan array binding signal (z-score),[16],-0.141
same,glycan array binding signal (z-score),[17],-0.176
same,glycan array binding signal (z-score),[18],0.394
same,glycan array binding signal (z-score),[19],-0.142
same,glycan array binding signal (z-score),[20],-0.133
same,glycan array binding signal (z-score),[21],-0.133
same,glycan array binding signal (z-score),[22],-0.157
same,glycan array binding signal (z-score),[23],-0.198
same,glycan array binding signal (z-score),[24],-0.143
same,glycan array binding signal (z-score),[25],-0.135
same,glycan array binding signal (z-score),[26],-0.131
same,glycan array binding signal (z-score),[27],2.77
same,glycan array binding signal (z-score),[28],-0.098
same,glycan array binding signal (z-score),[29],0.051
same,glycan array binding signal (z-score),[30],-0.128
same,glycan array binding signal (z-score),[31],-0.132
same,glycan array binding signal (z-score),[32],-0.138
same,glycan array binding signal (z-score),[33],-0.13
same,glycan array binding signal (z-score),[34],-0.117
same,glycan array binding signal (z-score),[35],-0.204
same,glycan array binding signal (z-score),[36],-0.218
same,glycan array binding signal (z-score),Fuc(a1-3)GlcNAc,-0.131
